The assay has as its target T1, complement factor H (human, UniProt P08603 19-1231, 125I-labelled (Iodobeads) in the blot and bacterial binding assays).
T1 construct: also called fH; FH
The experiment in a line: competitive binding assay: 125I-fH binding to PR218 bacteria (10^9 CFU/ml) in the presence of increasing GST.

T1 sequence (P08603 19-1231 limits assumed): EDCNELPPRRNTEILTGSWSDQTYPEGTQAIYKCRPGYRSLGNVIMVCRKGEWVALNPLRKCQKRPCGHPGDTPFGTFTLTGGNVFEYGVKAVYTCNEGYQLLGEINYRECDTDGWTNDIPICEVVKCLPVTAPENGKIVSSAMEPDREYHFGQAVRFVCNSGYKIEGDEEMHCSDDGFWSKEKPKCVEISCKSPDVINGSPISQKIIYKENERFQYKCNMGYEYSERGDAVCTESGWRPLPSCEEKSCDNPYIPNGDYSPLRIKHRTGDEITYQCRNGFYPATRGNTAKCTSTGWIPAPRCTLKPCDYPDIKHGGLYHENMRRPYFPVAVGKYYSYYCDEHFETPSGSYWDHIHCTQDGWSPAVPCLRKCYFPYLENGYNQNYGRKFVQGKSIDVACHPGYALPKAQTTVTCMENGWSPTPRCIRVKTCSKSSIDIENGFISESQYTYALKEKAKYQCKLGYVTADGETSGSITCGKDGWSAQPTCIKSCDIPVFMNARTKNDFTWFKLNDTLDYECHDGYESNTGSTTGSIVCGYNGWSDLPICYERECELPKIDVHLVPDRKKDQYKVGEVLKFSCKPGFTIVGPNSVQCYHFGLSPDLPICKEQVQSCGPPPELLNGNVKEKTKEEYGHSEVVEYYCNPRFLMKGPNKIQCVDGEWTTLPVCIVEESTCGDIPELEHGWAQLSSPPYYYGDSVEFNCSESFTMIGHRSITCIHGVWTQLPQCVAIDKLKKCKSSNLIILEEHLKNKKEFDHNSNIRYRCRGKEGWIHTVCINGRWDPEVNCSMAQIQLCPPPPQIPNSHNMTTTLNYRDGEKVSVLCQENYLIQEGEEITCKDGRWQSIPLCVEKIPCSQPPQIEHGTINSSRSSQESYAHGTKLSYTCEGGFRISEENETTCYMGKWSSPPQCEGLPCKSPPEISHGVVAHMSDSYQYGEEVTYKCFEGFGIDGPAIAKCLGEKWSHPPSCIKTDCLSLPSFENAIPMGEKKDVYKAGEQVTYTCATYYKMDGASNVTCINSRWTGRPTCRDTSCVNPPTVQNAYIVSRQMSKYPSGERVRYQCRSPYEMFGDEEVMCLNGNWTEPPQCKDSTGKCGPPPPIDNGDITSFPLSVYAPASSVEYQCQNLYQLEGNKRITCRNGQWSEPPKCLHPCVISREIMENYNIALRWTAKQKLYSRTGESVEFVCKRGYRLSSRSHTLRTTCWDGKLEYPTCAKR

B1: glutathione S-transferase (enzyme)
chain: not shown
notes: Control for the fusion protein; also called GST
Turning to B1, the binding result is “no binding (tested: about 140 nM)”.

(Values after patent US20040091495A1 (published 2004).)
